# Out of some 330,000 compounds screened, about 4,200 (1.3%) were called active. Inconclusive means that the source gave no clear call. Such entries were picked first, then a sample of the others. The call rests on the fitted dose curve; in most records, active means well fitted activation curve with a large enough effect; inconclusive means small, poorly fitted or top-dose-only effect; inactive means no such curve, though single readings can be large or run the other way. A potency beside an inconclusive call is a rough fit, not a confirmed value.
# Assay: qHTS screen for small molecules that induce genotoxicity in human embryonic kidney (HEK293T) cells expressing luciferase-tagged ELG1; further: nearly all actives have a fitted effect of over 60% in size
# Settings: HEK293T ELG1-luciferase reporter, luminescence, 16 h; series mostly up to 46 µM
# How it was run: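 Genotoxic stress is detected as increased luminescence from luciferase-tagged ELG1 in HEK293T cells, measured with ONE-Glo after a 16 hr treatment at 37 °C.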
# Potency means the concentration at half of the fitted maximal effect; tags describe the fitted curve by direction and shape.
row,Compound,Potency
1,C=Cc1ccc(Cn2c(=O)n(C)c(=O)c3sccc32)cc1,"inconclusive: 4.61 µM [activator, single point]"
2,O=C(NC(=O)c1ccccc1O)c1ccc2c(c1)CCO2,"inconclusive: 2.91 µM [activator, partial curve, poor fit]"
3,CC1=CC(=C2C=CC(=O)C=C2)C=C(C)N1C,inactive
4,CCNc1nc(Cl)nc(-c2cn(-c3ccccc3)c3ccccc23)n1,"inconclusive: 25.9 µM [activator, single point]"
5,COc1ccc(C(CNC(=O)c2ccco2)N2CCOCC2)cc1 (configuration not stated),inactive
6,O=C(COc1ccc(F)cc1)c1c(O)cc(O)cc1O,"inconclusive: 20.6 µM [activator, single point]"
7,CCOc1ccc(C(=O)NCCCN2CCCC2=O)cc1,"inconclusive: 23.1 µM [activator, partial curve, poor fit]"
8,COc1ccc(OC)c(Nc2nc(NCc3ccco3)nc(N)c2[N+](=O)[O-])c1,"inconclusive: 18.3 µM [activator, single point]"
9,CC(C)Sc1cc(Cl)nc(NC(=O)Nc2ccccc2)n1,"inconclusive: 25.9 µM [activator, single point]"
10,C=CCN1C(=O)S/C(=C\c2ccc3c(c2)n(C)c(=O)n3C)C1=O,"inconclusive: 14.6 µM [activator, partial curve]"
11,Cc1ccc(NC(=O)Nc2ccc3c(c2)OCO3)c(Br)c1,active: 18.3 µM
12,Clc1nccnc1N/N=C/c1ccc(Br)cc1,"inconclusive: 14.6 µM [activator, partial curve]"
13,CC(C)Oc1cccc(C(=O)C2CCCN(C(=O)CCc3cnn(C)c3)C2)c1 (configuration not stated),"inconclusive: 9.2 µM [activator, partial curve, poor fit]"
14,C=CCn1c(SCC(=O)NCC)nnc1-c1cc2c(s1)CCC(CC)C2 (configuration not stated),"inconclusive: 23.1 µM [activator, partial curve, poor fit]"
15,COc1ccc(-c2nn(C)c(=O)c3ccccc23)cc1NS(C)(=O)=O,"inconclusive: 8.2 µM [activator, single point]"
16,O=C(N1CCOCC1)N1CCC(n2nnc3ccccc32)CC1,inactive
17,COc1cc(SC)ccc1C(=O)Nc1ccccc1C#N,active: 9.2 µM
18,O=C(CCNC(=O)c1ccco1)Nc1nc(-c2ccccc2)cs1,"inconclusive: 10.3 µM [activator, partial curve]"
19,CC(=O)C(Sc1nn(C)c(=S)s1)C(=O)Nc1ccccc1 (configuration not stated),"inconclusive: 32.6 µM [activator, partial curve, poor fit]"
20,O=c1oc(CCO)cc2ccc(C#Cc3ccsc3)cc12,"inconclusive: 9.2 µM [activator, partial curve, poor fit]"
21,O=C(CCc1ccccc1)NNC(=O)Cc1ccccc1,inactive
22,Oc1ccc(/C=N/NC(=S)Nc2cccnc2)cc1,"inconclusive: 9.2 µM [activator, partial curve, poor fit]"
23,COc1cc(/C=N\NC(=O)c2ccc(-c3ccccc3)cc2)ccc1OCC(N)=O,inactive
24,CC(C)(C)c1cc(=O)n(-c2ccccc2)[nH]1,inactive

row,Compound,Potency
1,Nc1nc2ccccc2n1C(=O)c1ccccc1,active: 0.651 µM
2,O=C(Nc1ccc2c(c1)OCO2)c1noc2c1CCCC2,active: 0.651 µM
3,COc1ccc(OC)c(/C=C2/Sc3ccccc3C2=O)c1,inactive
4,O=C(Nc1ccncc1)C1CCN(S(=O)(=O)c2cccs2)CC1,inactive
5,O=C(Nc1cccc(C(F)(F)F)c1)c1cc(-c2ccc(F)cc2)on1,"inconclusive: 22.4 µM [activator, single point]"
6,COc1ccc(Cl)cc1NC(=O)CSc1nc(NS(=O)(=O)c2ccc(C)cc2)cc(=O)[nH]1,"inconclusive: 29.1 µM [activator, single point]"
7,Cc1ccc(/C=N/N=C2\SCC(=O)N2CC2CC2)cc1,inactive
8,O=C(NC(=S)Nc1nc2ccc(F)cc2s1)c1ccco1,"inconclusive: 2.31 µM [activator, full curve]"
9,Cc1ccc(NC(=O)CSc2nnc(NC(=O)C3CC3)s2)cc1,"inconclusive: 29.1 µM [activator, partial curve, poor fit]"
10,Cc1ccc(/C=C/C(=O)NC(=S)Nc2ccc(S(=O)(=O)Nc3cc(C)on3)cc2)cc1,inactive
11,O=C(N/N=C/c1cccnc1)c1ccc2ccccc2c1O,"inconclusive: 23.1 µM [activator, partial curve, poor fit]"
12,CCSc1nnc(-c2ccccc2N)c(=O)[nH]1,"inconclusive: 18.4 µM [activator, single point]"
13,O=C(C1CCCN(S(=O)(=O)c2cccc3nsnc23)C1)N1CC=C(c2ccccc2)CC1 (configuration not stated),inactive
14,Cn1c(=O)n(C)c2cc(/C=C3/NC(=O)N(Cc4ccccc4)C3=O)ccc21,active: 9.2 µM
15,Brc1ccccc1/C=N/Nc1nc2ccccc2o1,active: 11.6 µM
16,CC1(C)Cc2c(sc(NC(=O)c3ccccc3)c2C(=O)O)CO1,inactive
17,CCOc1ccc(C(=O)Nc2cccc(C)n2)cc1,"inconclusive: 2.06 µM [activator, partial curve]"
18,Cc1cccc(-n2ncc3c(N4CCC(C)CC4)ncnc32)c1,"inconclusive: 2.91 µM [activator, partial curve, poor fit]"
19,COc1ccc(-n2c(C)cc(C(=O)COC(=O)Cn3cnc4ccccc43)c2C)cc1,"inconclusive: 17.8 µM [activator, partial curve, poor fit]"
20,COCC(=O)Nc1sc2c(c1C(=O)OC)CCC(C)C2 (configuration not stated),"inconclusive: 32.6 µM [activator, partial curve, poor fit]"
21,Cc1cc(C)c(NC(=O)Cn2nnc(C(=O)NCc3ccco3)c2N)c(C)c1,"inconclusive: 32.6 µM [activator, partial curve, poor fit]"
22,COc1cc(OC)cc(C(=O)NNC(=O)c2ccc3ccccc3n2)c1,"inconclusive: 29.1 µM [activator, single point]"
23,CC(=O)Nc1ccc(S(=O)(=O)NCc2cc(=O)n(C)c(=O)n2C)cc1,inactive
